# Results as given in paper PMC4336329 (PLoS ONE, 2015).
# Out of some 310,000 compounds screened, about 2,200 (0.71%) showed an effect of 50% or more. Effects have a minus sign here. The list shows a part of the results. Where a SMILES comes first, the peptide text is derived from it. The star is where a group is joined. Boc = CC(C)(C)OC(=O)*
# Biological target: human ether-à-go-go-related gene (hERG) potassium channel (human, UniProt Q12809)
# Assay: primary screen, population patch clamp on CHO cells stably expressing hERG
# Sequence of human ether-à-go-go-related gene (hERG) potassium channel (Q12809 whole entry, looked up): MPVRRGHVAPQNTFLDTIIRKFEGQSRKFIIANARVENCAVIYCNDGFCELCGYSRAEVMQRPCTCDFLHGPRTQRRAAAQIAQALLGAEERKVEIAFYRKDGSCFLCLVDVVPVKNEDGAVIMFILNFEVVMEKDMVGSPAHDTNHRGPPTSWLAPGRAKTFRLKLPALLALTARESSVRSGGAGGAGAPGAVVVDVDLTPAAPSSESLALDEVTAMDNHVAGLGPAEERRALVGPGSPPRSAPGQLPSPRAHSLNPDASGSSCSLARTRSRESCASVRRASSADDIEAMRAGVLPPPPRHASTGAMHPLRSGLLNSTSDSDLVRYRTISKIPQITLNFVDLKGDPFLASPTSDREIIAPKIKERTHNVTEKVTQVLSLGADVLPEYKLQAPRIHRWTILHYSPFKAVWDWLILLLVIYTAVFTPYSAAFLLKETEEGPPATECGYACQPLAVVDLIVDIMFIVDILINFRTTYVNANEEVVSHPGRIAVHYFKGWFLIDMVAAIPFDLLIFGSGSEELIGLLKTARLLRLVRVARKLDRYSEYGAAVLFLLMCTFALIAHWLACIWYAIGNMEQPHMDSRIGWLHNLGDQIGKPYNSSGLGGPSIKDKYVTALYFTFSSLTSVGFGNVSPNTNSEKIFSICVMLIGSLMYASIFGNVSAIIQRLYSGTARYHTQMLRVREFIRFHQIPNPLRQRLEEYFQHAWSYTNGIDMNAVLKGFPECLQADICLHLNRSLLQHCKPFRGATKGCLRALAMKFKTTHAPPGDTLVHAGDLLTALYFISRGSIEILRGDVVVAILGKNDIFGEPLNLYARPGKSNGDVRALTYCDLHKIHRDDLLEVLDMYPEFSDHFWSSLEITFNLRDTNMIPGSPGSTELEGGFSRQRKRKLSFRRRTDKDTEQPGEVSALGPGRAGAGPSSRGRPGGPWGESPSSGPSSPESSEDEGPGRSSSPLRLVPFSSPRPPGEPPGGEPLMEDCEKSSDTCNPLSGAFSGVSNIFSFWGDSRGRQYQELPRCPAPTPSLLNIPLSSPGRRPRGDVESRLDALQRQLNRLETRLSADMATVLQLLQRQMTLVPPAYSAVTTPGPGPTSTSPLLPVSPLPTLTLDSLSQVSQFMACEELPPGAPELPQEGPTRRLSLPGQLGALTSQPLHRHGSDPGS
row,Compound,"hERG current change (%, negative = inhibition) at 1uM [%]"
1,Cc1cc(N(C)N)nc(NC(=O)NS(=O)(=O)c2ccccc2Cl)n1,8.66
2,COc1ccc(C(=O)/C=C2/c3ccccc3CC(C)(C)N2C)cc1,17.6
3,CC(C)C(NC(=O)OC(C)(C)C)C(=O)N1CCCC1C(=O)NC(Cc1ccccc1)C(N)=O (stereo not drawn) (Boc-Val-Pro-Phe-NH2; configuration not given here),3.9
4,CCOc1cccc(-c2cc(C(=O)Nc3ccon3)c3ccccc3n2)c1,10.6
5,COc1ccccc1-c1c(C(F)(F)F)oc2c(CN(C)C)c(O)ccc2c1=O,12.2
6,COc1cc2c(cc1OC)CN(C(=O)c1cc3ccccc3oc1=O)CC2,4.01
7,O=C(O)CCn1cc(C2CC(c3ccccc3)=NN2c2ccccc2)c(-c2ccccc2)n1 (stereo not drawn),45.1
8,COC(=O)c1ccccc1CSc1nsc(C)c1C#N,17.9
9,COc1ccc(CNC(=O)CN(c2ccc(C)cc2)S(=O)(=O)c2c(C)nn(C)c2C)cc1,11.5
10,Cc1c(CCOC(=O)c2ccccc2)sc[n+]1CC(=O)c1ccc(Br)cc1.[Br-],-82.8
11,COC(=O)c1ccccc1S(=O)(=O)Oc1ccc(-c2ccc(C(=O)O)cc2)cc1,9.49
12,O=C(CN(Cc1ccccc1)S(=O)(=O)c1ccccc1)N/N=C/c1ccc([N+](=O)[O-])cc1,11.6
13,Cc1ccc(C)c(N2CCN(C(=O)c3csc(C)c3C)CC2)c1,9.56
14,CC(=O)N1CCc2cc(Br)cc(S(=O)(=O)CCC(=O)N3CCN(c4ccccn4)CC3)c21,6.2
15,COc1ccc(CC2(CCc3ccncc3)C(=O)NC(=O)NC2=O)c(OC)c1,11.6
16,O=c1nc2sc3ccccc3n2c(=O)n1-c1ccc(Cl)cc1,8.14
17,O=C1N(Cc2cccc(Cl)c2)C[C@@H]2C[C@@H](c3cccn3-c3cccnc3)N3CCC[C@@]123,3.63
18,COc1ccc(CCn2c(O)c(C=Nc3ccc(NC(C)=O)cc3)c(=O)[nH]c2=O)cc1OC,17.9
19,CC1CCN(CCCOc2ccc(Br)cc2Cl)CC1,-20
20,CCCC(=O)Nc1ccc(NC(=O)c2cc3ccccc3o2)c(OC)c1,15.4
21,Cn1c(=O)c2c(-c3cccc(Br)c3)c(C#N)c(N)nc2n(C)c1=O,12.1

row,Compound,"hERG current change (%, negative = inhibition) at 1uM [%]"
1,Cc1cccc(NC(=O)CSCC(=O)OCc2ccccn2)c1,16.2
2,CCC(C(=O)NCc1cccnc1)n1nc(C)n2c(cc3occc32)c1=O (stereo not drawn),6.82
3,CCC(C)(C)NC(=O)C(c1ccc(OC)cc1)N(C(=O)CCC(=O)Nc1cc(C)on1)C1CC1 (stereo not drawn),1.45
4,COc1cc(OC)cc(C(=O)NNC(=O)CNC(=O)c2cccs2)c1,18.9
5,CCC1Oc2ccc(C)cc2N(CC(=O)NCc2cc(OC)ccc2OC)C1=O (stereo not drawn),8.23
6,COc1ccc(/C=N/Nc2nc(=O)[nH]nc2C)cc1[N+](=O)[O-],13.5
7,COC(=O)COc1ccc(S(=O)(=O)NCCC2=CCCCC2)cc1C,4.65
8,O=C(COC(=O)c1ccco1)NCc1ccccc1Cl,-0.0931
9,O=C(Nc1ccc(F)cc1)NC1CCCCCCC1,20
10,Cc1cc(=O)oc2cc(NC(=O)CCCC(=O)O)ccc12,12.5
11,CN1CCN(C(=O)CCN2C(=O)/C(=C\c3ccc(Cl)cc3)SC2=S)CC1,7.76
12,CCc1cc(C(=O)N2CCCc3ccccc32)sc1C,15.7
13,COc1ccc(Nc2ncnc3ccc(C)cc23)cc1,9.97
14,Cl.O=C(CN1CCOCC1)Nc1ccc(OC(F)(F)F)cc1,8.55
15,COc1ccc(-c2cc(C(F)(F)F)n3nc(C(=O)N(C)Cc4ccccc4)cc3n2)cc1OC,6.34
16,COc1ccc(CCN(CC(=O)NCc2ccc(F)cc2)C(=O)c2snc(C(N)=O)c2N)cc1OC,-3.03
17,Cc1ccc(S(=O)(=O)c2nc(S(=O)(=O)CCO)sc2N2CCOCC2)cc1,15.3
18,CC(C)c1c(C#N)c(N)nc(SCC(=O)c2cc3ccccc3oc2=O)c1C#N,9.61
19,Cc1cc(NC(=O)CSCC(=O)N(C)Cc2cccc(Cl)c2)no1,6.22
20,Cc1nc2cc(-c3cccc(F)c3)nn2c(C)c1CCC(=O)NC(C)c1ccc2c(c1)OCCO2 (stereo not drawn),-2.28
21,Cc1cccc(-n2c(SCc3ccc(C#N)cc3)nnc2-c2c[nH]c3ccccc23)c1,9.46

row,Compound,"hERG current change (%, negative = inhibition) at 1uM [%]"
1,CCOC(=O)N1CCC(NC(=O)c2ccc3c(c2)N=C(C)c2ccccc2S3)CC1,10.8
2,Cc1ccccc1NC(=O)c1ccc(C)c(S(=O)(=O)Nc2cccnc2)c1,11.1
3,CC(=O)c1cccc(NS(=O)(=O)c2c(C)noc2C)c1,15.3
4,COc1ccc(CCN2C(=O)NC(NS(=O)(=O)c3ccc(NC(C)=O)cc3)(C(F)(F)F)C2=O)cc1OC (stereo not drawn),-0.301
5,CCc1ccc(N2CC(C(=O)NCc3ccc4c(c3)OCO4)CC2=O)cc1 (stereo not drawn),7.51
6,Cc1cccc(-c2nc3ccccc3c(=O)n2NC(=O)/C=C/c2ccc([N+](=O)[O-])cc2)c1,-11.1
7,CN(C)S(=O)(=O)c1ccc(N2CCCC2)c(C(=O)OCC(=O)N2CCN(c3ccccc3)CC2)c1,4.41
8,CCCCC(=O)NC(=S)NNC(=O)CCc1ccccc1,10.8
9,CC#CCNCc1ccccc1,16.5
10,Cc1cc(Br)cc(Br)c1OCC(=O)NNC(=O)Nc1ccccc1,6.33
11,CCCCOc1nc2ccccc2nc1C(C#N)C(=O)NC1CCCCC1 (stereo not drawn),13.3
12,O=[N+]([O-])c1ccc(-[n+]2ccc3ccccc3c2)c([N+](=O)[O-])c1.[Cl-],3.65
13,COC(=O)c1sccc1NC(=O)CC1C(=O)NCCN1C(=O)Nc1ccc(C(F)(F)F)cc1 (stereo not drawn),10.5
14,Cc1ccsc1/C=C1/SC(N2CCOCC2)=NC1=O,7.45
15,COc1cccc(/C=N/NC(=O)c2cc(C34CC5CC(CC(C5)C3)C4)[nH]n2)c1,4.28
16,COc1ccc(-c2nn(CCC(=O)O)cc2/C=C/C(=O)O)cc1[N+](=O)[O-],12.4
17,CCOC(=O)c1cnc(SC2CC(=O)N(c3ccc(OC)c(OC)c3)C2=O)nc1N (stereo not drawn),-5.27
18,CC1CCN(CCc2nc3cc(NC(=O)C(C)C)ccc3n2C)CC1,9.1
19,Cc1cc(C)cc(OCC(=O)Nc2ccc(N3CCCCC3)cc2)c1,13.2
20,COc1ccc(CCN=C(N)NS(=O)(=O)c2ccc(F)cc2)cc1OC,6.27
21,Cc1ccc(S(=O)(=O)N2CCN(Cc3cc(=O)n4ccccc4n3)CC2)c(C)c1,-33.5

row,Compound,"hERG current change (%, negative = inhibition) at 1uM [%]"
1,CN(C)CCNC(=O)C(=O)Nc1cc2c3c(c1)CCC(=O)N3CCC2,10.5
2,CCc1ccccc1NC(=O)/C(=C/c1ccco1)c1ccccc1,7.04
3,COc1cc(/C=C(\NC(C)=O)C(=O)Nc2ccc(NC(C)=O)cc2)ccc1OC(C)=O,6.81
4,COc1ccc(NC(=O)Nc2ccc3oc(C)nc3c2)cc1,7.5
5,COc1ccc(NC(C)=O)cc1C#N,13.8
6,O=C(NCCc1ccccc1F)C1CCCN1S(=O)(=O)c1ccc2ccccc2c1 (stereo not drawn),-4.4
7,Cc1noc(C)c1C(=O)Nc1nc(-c2ccc([N+](=O)[O-])cc2)cs1,8.89
8,CCN(CCCNC(=O)c1c(C)cc(=O)oc1C)c1ccccc1,-20.4
9,COc1ccc(/C=C2\SC(=S)N(CCCC(=O)Nc3cccc(C(=O)O)c3)C2=O)cc1OC,9.24
10,Cl.Clc1ccc(CN2C3=NCCCN3c3ccccc32)c(Cl)c1,-28.2
11,Cc1cc([N+](=O)[O-])nn1CC(=O)NC(C)c1ccccc1 (stereo not drawn),7.18
12,CC(=O)c1ccc2noc(-c3ccccc3)c2c1,9.65
13,O=c1[nH]c(=O)n(Cc2ccco2)c2c1C(C(F)(F)F)(C(F)(F)F)N=C(CCC1CCCCC1)N2,-2.96
14,CCC(C)n1nnc2c(=O)oc3ccccc3c21 (stereo not drawn),-5.7
15,CCCOc1ccc(Cc2c(Cl)nc(SC)nc2OC)cc1,14.2
16,CC(C)Cc1nc(N2CCCCC2)c(C#N)c2c1CCC2,3.68
17,CC(=O)N1CCC(N(CCN2CCOCC2)C(=S)Nc2ccc(C)c(C)c2)CC1,5.17
18,Cc1cccc(Cn2c(=O)n(Cc3ccco3)c(=O)c3ccccc32)c1,10.5
19,N/C(=N\NC(=O)c1sccc1OCc1ccc(Cl)cc1Cl)c1ccccn1,11.4
20,C=CCOc1c(OC)cc(/C=N/Nc2cccc(C(=O)O)c2)c(Br)c1Br,17.5
21,COCc1nnc(NC(=O)c2ccc(NC(=O)C(C)C)cc2)s1,8.51
